This is one part of the list.
What was measured:
HSkMC = human skeletal muscle cells; assay: cytotoxicity call (relative viability < 0.9); conditions: 10 µM
HepG2 = assay: cytotoxicity call (relative viability < 0.9); conditions: 10 µM
S. aureus RN4220 = assay: growth inhibition call (relative growth <= 0.2); conditions: 50 µM

## NC(=O)[C@H]1Cc2ccccc2N1
HSkMC
  cytotoxicity call: inactive
HepG2
  cytotoxicity call: inactive
S. aureus RN4220
  growth inhibition call: inactive

## CC(C)(C)S(=O)N1Cc2cc(C(=O)N[C@@H]3CCN(Cc4ccccc4)C3)nc(-c3cccc(C#CCC4CCCC4)c3)c2[C@H]1CCO (stereo not given in full)
HSkMC
  cytotoxicity call: active
HepG2
  cytotoxicity call: inactive
S. aureus RN4220
  growth inhibition call: inactive

## C[C@@H]1CN([C@@H](C)CO)C(=O)c2cc(C#Cc3ccccc3)cnc2O[C@H]1CN(C)S(=O)(=O)c1ccccc1F
HSkMC
  cytotoxicity call: inactive
HepG2
  cytotoxicity call: active
S. aureus RN4220
  growth inhibition call: inactive

## Cc1ccccc1S(=O)(=O)N1C[C@H](O)COC[C@@H]2O[C@@H](CC(=O)N3CCOCC3)CC[C@H]21
HSkMC
  cytotoxicity call: inactive
HepG2
  cytotoxicity call: inactive
S. aureus RN4220
  growth inhibition call: inactive

## COc1ccc(S(=O)(=O)Nc2ccc3c(c2)C(=O)N([C@H](C)CO)C[C@H](C)[C@@H](CN(C)S(=O)(=O)c2ccc(F)cc2)O3)cc1
HSkMC
  cytotoxicity call: inactive
HepG2
  cytotoxicity call: inactive
S. aureus RN4220
  growth inhibition call: inactive

## C[C@@H]1CN([C@@H](C)CO)C(=O)c2cccc(NC(=O)Nc3ccc(F)cc3)c2O[C@@H]1CN(C)Cc1ccc(Oc2ccccc2)cc1
HSkMC
  cytotoxicity call: inactive
HepG2
  cytotoxicity call: inactive
S. aureus RN4220
  growth inhibition call: inactive

## COc1ccc(cc1)CN1CC[C@]2(CC1)CN([C@H](CO)c1[nH]c3cc(ccc3c12)OC)C(=O)CN(C)C
HSkMC
  cytotoxicity call: inactive
HepG2
  cytotoxicity call: inactive
S. aureus RN4220
  growth inhibition call: inactive

## Cc1noc(C)c1S(=O)(=O)Nc1ccc2c(c1)C(=O)N([C@H](C)CO)C[C@H](C)[C@@H](CN(C)S(C)(=O)=O)OCCCC[C@H](C)O2
HSkMC
  cytotoxicity call: inactive
HepG2
  cytotoxicity call: inactive
S. aureus RN4220
  growth inhibition call: inactive

## C[C@H]1CCCCO[C@H](CN(C)S(=O)(=O)c2ccccc2)[C@@H](C)CN([C@@H](C)CO)C(=O)c2cc(NS(C)(=O)=O)ccc2O1
HSkMC
  cytotoxicity call: inactive
HepG2
  cytotoxicity call: inactive
S. aureus RN4220
  growth inhibition call: inactive

## C[C@@H]1CN([C@@H](C)CO)C(=O)c2cc(NC(=O)Nc3ccc(C(F)(F)F)cc3)ccc2O[C@@H]1CN(C)Cc1ccccc1
HSkMC
  cytotoxicity call: active
HepG2
  cytotoxicity call: active
S. aureus RN4220
  growth inhibition call: inactive

## C[C@@H]1CN([C@H](C)CO)C(=O)c2cc(-c3ccncc3)cnc2O[C@H]1CN(C)C(=O)Nc1ccc2c(c1)OCO2
HSkMC
  cytotoxicity call: inactive
HepG2
  cytotoxicity call: inactive
S. aureus RN4220
  growth inhibition call: inactive

## COc1ccc(C#Cc2cnc3c(c2)C(=O)N([C@@H](C)CO)C[C@@H](C)[C@H](CN(C)C(=O)CN(C)C)O3)cc1
HSkMC
  cytotoxicity call: inactive
HepG2
  cytotoxicity call: inactive
S. aureus RN4220
  growth inhibition call: inactive

## C[C@@H]1CN([C@@H](C)CO)C(=O)c2cc(NC(=O)CCN3CCOCC3)ccc2O[C@@H]1CN(C)CC1CCCCC1
HSkMC
  cytotoxicity call: inactive
HepG2
  cytotoxicity call: inactive
S. aureus RN4220
  growth inhibition call: inactive

## CNC[C@@H](O)c1cccc(O)c1
HSkMC
  cytotoxicity call: inactive
HepG2
  cytotoxicity call: inactive
S. aureus RN4220
  growth inhibition call: inactive

## O=C1CC[C@@H](C(=O)N2CSC[C@H]2C(=O)O)N1
HSkMC
  cytotoxicity call: inactive
HepG2
  cytotoxicity call: inactive
S. aureus RN4220
  growth inhibition call: inactive

## O=C(C[C@@H]1C[C@H]2c3cc(NS(=O)(=O)c4ccc(F)cc4)ccc3O[C@H]2[C@@H](CO)O1)NC1CCCCC1
HSkMC
  cytotoxicity call: inactive
HepG2
  cytotoxicity call: inactive
S. aureus RN4220
  growth inhibition call: inactive

## C[C@@H]1CN([C@H](C)CO)C(=O)c2cc(NC(=O)Nc3ccc(F)cc3)ccc2O[C@H]1CN(C)C(=O)Nc1cccc2ccccc12
HSkMC
  cytotoxicity call: inactive
HepG2
  cytotoxicity call: inactive
S. aureus RN4220
  growth inhibition call: inactive

## CCC(C)C1OC2(C=CC1C)CC1CC(CC=C(C)C(OC3CC(OC)C(OC4CC(OC)C(O)C(C)O4)C(C)O3)C(C)C=CC=C3COC4C(OC)C(C)=CC(C(=O)O1)C34O)O2 (stereo not given)
HSkMC
  cytotoxicity call: active
HepG2
  cytotoxicity call: active
S. aureus RN4220
  growth inhibition call: inactive

## C[C@@H]1CN([C@H](C)CO)C(=O)c2cc(NS(C)(=O)=O)ccc2O[C@H]1CN(C)C(=O)Nc1ccc(F)cc1
HSkMC
  cytotoxicity call: inactive
HepG2
  cytotoxicity call: inactive
S. aureus RN4220
  growth inhibition call: inactive

## C[C@@H]1CN([C@H](C)CO)C(=O)c2cc(NC(=O)C3CCCCC3)ccc2O[C@@H](C)CCCCO[C@@H]1CN(C)C(=O)Nc1ccc2c(c1)OCO2
HSkMC
  cytotoxicity call: inactive
HepG2
  cytotoxicity call: inactive
S. aureus RN4220
  growth inhibition call: inactive

## C[C@@H]1CN([C@@H](C)CO)C(=O)c2cccc(NC(=O)Nc3cccc4ccccc34)c2O[C@H]1CN(C)C(=O)Nc1ccc(F)cc1
HSkMC
  cytotoxicity call: inactive
HepG2
  cytotoxicity call: inactive
S. aureus RN4220
  growth inhibition call: inactive

## Cc1noc(C)c1NC(=O)N(C)C[C@H]1OCCCC[C@@H](C)Oc2ccc(NC(=O)C3CCCCC3)cc2C(=O)N([C@@H](C)CO)C[C@@H]1C
HSkMC
  cytotoxicity call: inactive
HepG2
  cytotoxicity call: inactive
S. aureus RN4220
  growth inhibition call: inactive

## Cc1noc(C)c1NC(=O)N(C)C[C@@H]1OCCCC[C@@H](C)Oc2ccc(NC(=O)Nc3ccc(C(F)(F)F)cc3)cc2C(=O)N([C@H](C)CO)C[C@H]1C
HSkMC
  cytotoxicity call: inactive
HepG2
  cytotoxicity call: inactive
S. aureus RN4220
  growth inhibition call: inactive

## C[C@H]1CN([C@@H](C)CO)S(=O)(=O)c2ccc(C3=CCCC3)cc2O[C@@H]1CN(C)C(=O)c1cnccn1
HSkMC
  cytotoxicity call: inactive
HepG2
  cytotoxicity call: inactive
S. aureus RN4220
  growth inhibition call: inactive

## C[C@@H]1CN([C@H](C)CO)C(=O)c2cc(NC(=O)Nc3ccc(F)cc3)ccc2O[C@@H]1CN(C)C(=O)Nc1ccc(C(F)(F)F)cc1
HSkMC
  cytotoxicity call: inactive
HepG2
  cytotoxicity call: inactive
S. aureus RN4220
  growth inhibition call: inactive
